In all, about 420,000 compounds went through this assay and about 64,000 (15%) were called active. The inconclusive results got no clear call from the source; some entries with a clear call stand among them for comparison. Calls come from the whole dose curve; as a rule, active = well fitted inhibition curve with a large enough effect; inconclusive = small, poorly fitted or top-dose-only effect; inactive = flat fitted curve, though single readings scatter. Potencies of inconclusive entries are left out as doubtful fits.
Assay: qHTS for Inhibitors of human tyrosyl-DNA phosphodiesterase 1 (TDP1): qHTS in cells in absence of CPT; note: nearly all actives have a fitted effect of over 55% in size
Conditions: DT40 Tdp1-/- hTDP1 cells, no CPT, ATP luminescence, 48 h; activity change, negative = growth inhibition: at 46.2 µM (top of the series) unless noted
Method in brief: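 A cellular qHTS used chicken DT40 cells lacking endogenous Tdp1 but carrying stably transfected human TDP1. Compounds were applied without camptothecin, and cell growth kinetics were judged by ATP-dependent luminescence after ≥48 hr.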
% is set by controls: 0 for no effect and ±100 for the full control effect; potency is the fitted concentration of half-maximal effect; tags give direction and shape of the fitted curve.

SMILES | Potency | activity change, negative = growth inhibition
O=C(C(=Cc1ccccc1)c1ccccc1)c1ccccc1 | inconclusive [inhibitor, single point] | –
CCN1CCN(CCNC(=O)c2ccc(CS(=O)c3ccc(Cl)cc3)o2)CC1 (centres undefined) | inactive | –
C=CCn1c(SCC(=O)Nc2ccccc2C)nnc1-c1ccncc1 | inconclusive [inhibitor, single point] | –
CCOC(=O)c1c(NC(=S)Nc2ccccc2)sc2c1CCCCC2 | inactive | –
CC(OC(=O)c1cc2sccc2n1C)C(=O)NCc1ccco1 (centres undefined) | inactive | –
CCN(CC)S(=O)(=O)c1ccc(N2CCCC2)c(C(=O)OCC(=O)Nc2cc(C)on2)c1 | inconclusive [inhibitor, partial curve] | –
COc1ccccc1N(C)S(=O)(=O)c1ccc(C(=O)Nc2ncc(C)s2)cc1 | inconclusive [inhibitor, single point] | –
OCCNCc1cccc(OCc2ccccc2Cl)c1 | inconclusive [inhibitor, single point] | –
O=C(CSCc1c(F)cccc1Cl)NCC1CCCO1 (centres undefined) | inactive | –
O=C(CSc1nnc(NC(=O)C2CC2)s1)Nc1ccc2c(c1)OCCO2 | – | inconclusive: -35.8% [inhibitor]
COc1ccccc1N1CCN(C(=O)COc2cccc(C)c2C)CC1 | inconclusive [inhibitor, single point] | –
O=C(CC1CS(=O)(=O)CC1CC(=O)Nc1ccc2c(c1)OCCO2)Nc1ccc2c(c1)OCCO2 (centres undefined) | inactive | –
COC(=O)C1=CN(c2ccc(OC)cc2)C(N)=C(C#N)C1c1ccc(OC)cc1 (centres undefined) | inconclusive [inhibitor, single point] | –
O=C(O)c1ccc2c(=O)n3c(nc2c1)/C(=C/c1ccccc1C(F)(F)F)CCCC3 | inactive | –
Cc1ccccc1NC(=O)COC(=O)/C=C/c1cn(-c2ccccc2)nc1-c1cccnc1 | inconclusive [inhibitor, single point] | –
Cc1c(CC(=O)N[C@H](C(=O)O)C(C)C)c(=O)oc2cc3c(cc12)CCC(C)(C)O3 | active: 23.1 µM | –
O=c1cc(CSc2nnc(C3CC3)n2Cc2ccccc2)nc2sccn12 | inactive | –
CCCc1nnc(NC(=O)C2CC(=O)N(C3CCCC3)C2)s1 (centres undefined) | inactive | –
Cc1ccc(C2C(=O)N(C3CCCC3)CC(=O)N2CC2COc3ccccc3O2)cc1 (centres undefined) | inconclusive [inhibitor, partial curve] | –
Cc1csc2ncnc(N3CCN(C(=O)Nc4ccc(OC(F)(F)F)cc4)CC3)c12 | active: 5.8 µM | –
Cc1ccc(C(=O)N(CC(=O)NC2CCCCC2)c2ccccc2C)s1 | active: 23.1 µM | –
CCCCN(C)C(=O)c1cc2cc3cc(OC)ccc3nc2o1 | inconclusive [inhibitor, single point] | –
COCCCNC(=O)c1cccc(S(=O)(=O)N2CC3(C)CC2CC(C)(C)C3)c1 (centres undefined) | inconclusive [inhibitor, single point] | –
O=C(c1cc(COc2ccc(F)cc2Cl)on1)N1CCN(c2cnccn2)CC1 | inconclusive [inhibitor, partial curve] | –
N#CC1=C(N)C2=CCCC[C@H]2[C@H](c2ccccc2)C1(C#N)C#N | inconclusive [inhibitor, single point] | –

SMILES | Potency | activity change, negative = growth inhibition
CCCCN1C(=O)C(O)(c2c(C)[nH]c3ccccc23)c2ccccc21 (centres undefined) | active: 5.8 µM | –
Cc1csc(Nc2ccccc2C(F)(F)F)n1 | inconclusive [inhibitor, single point] | –
O=S(=O)(Nc1ccc(-c2ccc3nncn3n2)cc1)c1cc(F)ccc1F | inconclusive [inhibitor, partial curve] | –
O=C(O)CCC(=O)Nc1ccccc1Oc1ccccc1 | inconclusive [inhibitor, single point] | –
CC(C)(Cc1ccc(O)cc1)NC(=O)SCc1ccccc1 | inconclusive [inhibitor, single point] | –
C=CCNC1=C2C[C@@H](C)C[C@H](OC)[C@H](O)[C@@H](C)/C=C(\C)[C@H](OC(N)=O)[C@@H](OC)/C=C\C=C(/C)C(=O)NC(=CC1=O)C2=O | active: 0.376 µM | –
Cc1ccc(CN(Cc2ccco2)C(=O)c2oc3ccc(C)cc3c2C)cc1 | active: 14.6 µM | –
Cc1cccc(-n2ncc3c(N4CCCCCC4)ncnc32)c1 | active: 20.6 µM | –
Cc1cc(C(=O)NC2CCN(Cc3ccccc3)CC2)n[nH]1 | inactive | –
O=C(Nc1cccs1)Nc1c(F)c(F)c(F)c(F)c1F | active: 16.4 µM | –
CCOc1ccc(C(=O)c2cn(Cc3ccc(F)cc3)c3ccc(F)cc3c2=O)cc1 | inconclusive [inhibitor, single point] | –
COc1ccc2cc(-c3[nH]ncc3CNCCn3nc(C)cc3C)ccc2c1 | inconclusive [inhibitor, single point] | –
CC(C)Cn1c(O)c2ccc(C(=O)N=NC(=O)c3cccnc3)cc2c1O | inactive | –
COc1ccc(N(CC(=O)NCCc2ccc(OC)c(OC)c2)S(=O)(=O)c2c(C)noc2C)cc1 | inactive | –
O=C(COc1cccc(Cl)c1)Nc1cc(S(=O)(=O)N2CCOCC2)ccc1N1CCOCC1 | active: 18.4 µM | –
CC(=O)NC(C(=O)OCC(=O)N(c1ccccc1)c1ccccc1)C(C)C (centres undefined) | inconclusive [inhibitor, partial curve] | –
CCC1CCCCN1C(=S)NC1CCCCC1 (centres undefined) | inconclusive [inhibitor, single point] | –
O=C(COC(=O)c1ccc([N+](=O)[O-])cc1)Nc1ccccc1C(=O)NC1CC1 | inactive | –
CC1CCc2c(C(=O)Nc3nccs3)csc2C1 (centres undefined) | inconclusive [inhibitor, single point] | –
Cc1ccc(-n2nc(C)c3c(C)c(CCC(=O)O)c(C)nc32)cc1 | inactive | –
COc1ccc(-c2csc(C(NC(C)=O)c3cccc(F)c3)n2)cc1 (centres undefined) | active: 16.4 µM | –
CC(c1ccccc1)N1CC(C(=O)N2CCCC(C(N)=O)C2)CC1=O (centres undefined) | inactive | –
O=C(COc1cccc(F)c1)Nc1nc(-c2ccccn2)cs1 | active: 2.59 µM | –
CCOC(=O)c1nnn(CC(=O)N2N=C(c3ccccc3)CC2c2ccccc2)c1C(=O)OCC (centres undefined) | active: 18.4 µM | –
CCCn1c(=NC(C)=O)c(C(=O)OCC)cc2c(=O)n3ccccc3nc21 | inconclusive [inhibitor, single point] | –

SMILES | Potency | activity change, negative = growth inhibition
O=C(C1=C[C@@H](c2ccccc2)C[C@@H](OCCCCO)O1)N1CCN(Cc2ccc3c(c2)OCO3)CC1 | inconclusive [inhibitor, single point] | –
Clc1ccc(Cn2cc3c(n2)-c2cc4ccccc4n2C3)cc1 | active: 12.6 µM | –
CCc1ccc(NC(=O)CSc2nc3ncccc3[nH]2)cc1 | active: 13 µM | –
COc1ccc(CNC(=O)[C@H](Cc2c[nH]c3ccccc23)NC(=O)[C@@H]2Cc3ccccc3CN2)cc1 | inconclusive [inhibitor, single point] | –
Cc1ccc(S(=O)(=O)N2CCN(C(=O)COC(=O)c3ccccc3OC(F)F)CC2)c(C)c1 | inconclusive [inhibitor, single point] | –
CC(C)N1C[C@@H](NCc2ccccc2O)C[C@H]1C(=O)N1CCN(c2cccc(C(F)(F)F)c2)CC1 | active: 18.4 µM | –
CC1(C)SC2C(NC(=O)C(N)c3ccccc3)C(=O)N2C1C(=O)O (centres undefined) | inactive | –
c1ccc(Nc2nc(N3CCCCC3)nc(N3CCCCC3)n2)cc1 | inconclusive [inhibitor, single point] | –
CCOC(=O)c1[nH]c2ccc(OC)cc2c1NS(=O)(=O)c1ccc(Cl)s1 | inconclusive [inhibitor, single point] | –
CCc1nnc(NC(=O)CSc2nc3c(c(=O)n2C)SC(C)C3)s1 (centres undefined) | active: 20.6 µM | –
CCOc1ccc(C(=O)CC(=O)C(=O)NCCc2ccc(OC)c(OC)c2)cc1 | inconclusive [inhibitor, single point] | –
CCOC(=O)/C=C/C(=O)OCC(=O)Nc1ccc(Cl)cc1Cl | inactive | –
Cc1c(-c2ccc(OCc3ccccc3)cc2)nc2ccccc2c1C(=O)O | inactive | –
CC(C)NC(=O)c1ccccc1NC(=O)C1COc2ccccc2O1 (centres undefined) | active: 20.6 µM | –
S=C(NCc1ccco1)N1CCN(c2nc(-c3ccc(Cl)cc3)cs2)CC1 | inconclusive [inhibitor, single point] | –
COc1cccc(C(C)(O)c2nc(-c3cccs3)cs2)c1 (centres undefined) | – | inconclusive: -34.1% [inhibitor]
COc1ccc(N2CCN(C(=O)CCCSc3nc4ccccc4[nH]3)CC2)cc1 | inconclusive [inhibitor, single point] | –
CCCCC/C=C\C/C=C\CCCCCCCC(=O)O | inactive | –
COc1ccc(-c2cc(-c3ccc(OC)cc3)[nH]n2)cc1 | inconclusive [inhibitor, single point] | –
CCOC(=O)C1=C(C)N=C2SCCC(=O)N2C1c1sccc1C (centres undefined) | inconclusive [inhibitor, single point] | –
COc1ccc(C(CC(=O)N2CCCC(C)C2)c2c(O)cc(OC)cc2OC)cc1 (centres undefined) | inactive | –
Cc1cc(C)c(C(=O)CSC2=NC(N)=C(C#N)C3(CCCCC3)C2C(N)=O)cc1C (centres undefined) | inconclusive [inhibitor, single point] | –
CCCCN(C)C(=O)CCCc1c[nH]c2ccccc12 | inconclusive [inhibitor, single point] | –
CCOC(=O)COc1ccc(S(=O)(=O)NC2CC2)cc1 | inactive | –

— PubChem BioAssay AID686978 (National Center for Advancing Translational Sciences (NCATS), 2013)
